# Results published in PubChem BioAssay AID2100 (National Center for Advancing Translational Sciences (NCATS), 2009).
# Screen size: about 300,000 compounds; about 1,200 (0.4%) were called active. Inconclusive means that the source gave no clear call. Such entries were picked first, then a sample of the others. The call rests on the fitted dose curve; in most records, active means well fitted inhibition curve with a large enough effect; inconclusive means small, poorly fitted or top-dose-only effect, or another doubt; inactive means no such curve, though single readings can be large or run the other way. Where the call is inconclusive, the potency comes from a doubtful curve fit.
# Molecular target: Lysosomal alpha-glucosidase (Homo sapiens) (UniProt P10253)
# Assay: qHTS Assay for Inhibitors and Activators of Human alpha-Glucosidase Cleavage of Glycogen
# Conditions: recombinant GAA, glycogen substrate, Amplex Red glucose oxidase fluorescence; series mostly up to 76.4 µM
# How it was run: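 Recombinant human alpha-glucosidase (4 nM final) hydrolysed bovine liver glycogen (30 ug) for 40 min at 37 C in pH 5.0 citrate/phosphate with 0.01% Tween-20. Released glucose detected by glucose oxidase/Amplex Red, Ex 573/Em 610 nm. Compounds up to 77 uM; AC50 from Hill fits.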
# Potency means the concentration at half of the fitted maximal effect.
row,SMILES,Potency
1,O=C1C=C(NNC(=O)c2ccncc2)CC(c2ccccc2)C1 (configuration not stated),"inconclusive: 1.76 µM [inhibitor, partial curve, poor fit]"
2,Cc1ccc(Nc2c(-c3cccnc3)nc3ccc(Cl)cn23)cc1,"inconclusive: 5.62 µM [inhibitor, partial curve]"
3,COc1cc(C(=O)Oc2c(CN3CCOCC3)cc(Cl)c3cccnc23)cc(OC)c1OC,inactive
4,COc1ccc(CNc2ccc3c(c2)ncn3C)cc1OC,"inconclusive: 31.6 µM [inhibitor, partial curve]"
5,Fc1ccc(-c2nc3ccccn3c2NCc2ccc3c(c2)OCO3)cc1,"inconclusive: 3.98 µM [inhibitor, full curve]"
6,CCOc1ccc(S(=O)(=O)Nc2cc(Cl)ccc2O)cc1,active: 28.2 µM
7,CC(=O)c1ccc(NC(=O)CC2Nc3cc(C)c(C)cc3NC2=O)cc1 (configuration not stated),"inconclusive: 31.6 µM [activator, single point]"
8,CCOc1ccc(C2C(C#N)=C(C)NC3=C2C(=O)c2ccccc23)cc1 (configuration not stated),"inconclusive: 31.6 µM [activator, single point]"
9,CCc1ccc(C2C(C(=O)Nc3ccccc3OC)=C(C)Nc3nc(SCc4ccccc4)nn32)cc1 (configuration not stated),inactive
10,COc1ccc(NC(=S)NNC(=O)Cn2nc([N+](=O)[O-])cc2C)cc1,active: 14 µM
11,O=C(CCn1nc(-c2ccccc2)ccc1=O)NCCCN1CCCCCC1,"inconclusive: 39.5 µM [activator, single point]"
12,CC(=O)NC1(c2nnnn2CCOC(=O)Nc2ccc(Cl)cc2)CCCC1,"inconclusive: 2.82 µM [inhibitor, full curve, poor fit]"
13,O=C(CCC(=O)N1CCN(c2ccc(O)cc2)CC1)c1ccc(Br)cc1,"inconclusive: 7.88 µM [inhibitor, partial curve, poor fit]"
14,COc1cccc(/C=C2\NC(=O)NC2=O)c1O,"inconclusive: 50.1 µM [inhibitor, single point]"
15,O=C(Cc1ccccc1)NNC(=S)Nc1ccccc1,"inconclusive: 8.84 µM [inhibitor, full curve]"
16,Oc1ccc(N2CCN(C(c3cccs3)c3nnnn3CCc3ccccc3)CC2)cc1 (configuration not stated),active: 28 µM
17,CCOc1ccc(/C=N/NC(=O)CSc2ccccn2)cc1O,"inconclusive: 14.1 µM [inhibitor, partial curve]"
18,O=[N+]([O-])/C(=C\Nc1ccccc1Cl)S(=O)(=O)c1ccccc1,inactive
19,COc1ccc(C2=NC(C)(C)N(CC(=O)Nc3cc(OC)cc(OC)c3)C2=O)cc1,"inconclusive: 11.2 µM [inhibitor, single point]"
20,CCOC(=O)c1c(C)oc2c1cc(O)c1ccccc12,"inconclusive: 15.7 µM [inhibitor, partial curve]"
21,C(=N\Nc1nncn1/N=C/c1ccco1)/c1ccco1,"inconclusive: 14.1 µM [inhibitor, partial curve]"

row,SMILES,Potency
1,C[C@@H]1O[C@@H](OC[C@H]2O[C@@H](Oc3c(-c4ccc(O)c(O)c4)oc4cc(O)cc(O)c4c3=O)[C@H](O)[C@@H](O)[C@@H]2O)[C@H](O)[C@H](O)[C@H]1O,active: 3.16 µM
2,COc1ccc(OC)c(-c2csc(-c3c(N)c(C(=O)c4ccc(Cl)cc4)n4ccccc34)n2)c1,inactive
3,CC(C)(C)n1nc2c(c1NC(=O)CCCc1ccccc1)CS(=O)C2 (configuration not stated),"inconclusive: 112 µM [inhibitor, partial curve, poor fit]"
4,Cc1cc(C)c(C(=O)CSc2nnc(C)s2)c(C)c1,"inconclusive: 28.2 µM [inhibitor, single point]"
5,Nc1ccc(-c2nc3c(Cl)cc(N)cc3[nH]2)cc1,"inconclusive: 9.92 µM [inhibitor, partial curve, poor fit]"
6,C=CCN(Cc1cccc(OC)c1OC)S(=O)(=O)N(C)C,"inconclusive: 5.01 µM [inhibitor, partial curve, poor fit]"
7,COc1ccc2c(c1)C(=O)c1ccccc1CO2,"inconclusive: 35.5 µM [inhibitor, single point]"
8,Cc1ccc(-c2nnc(Nc3ccccc3O)c3ccccc23)cc1,"inconclusive: 10 µM [inhibitor, partial curve]"
9,CC(=O)c1ccc(NC(=O)COc2ccccc2-c2nc(-c3ccc(C)cc3)no2)cc1,"inconclusive: 31.6 µM [inhibitor, partial curve]"
10,CCOc1ccc(-c2cnc(NCc3cccc4ccccc34)n2CCOC)cc1,"inconclusive: 50.1 µM [inhibitor, single point]"
11,CCOC(=O)C1=C(c2ccccc2)N(C)C(=O)NC1c1ccc(O)c(OC)c1 (configuration not stated),"inconclusive: 28 µM [inhibitor, single point]"
12,COc1cccc(NC(=S)NNC(=O)Cn2nc([N+](=O)[O-])cc2C)c1,"inconclusive: 31.6 µM [inhibitor, partial curve]"
13,CC(=O)N=c1sc2ccccc2n1C,inactive
14,CC1(C)CC(=O)C=C(NNC(=O)c2cccnc2)C1,"inconclusive: 9.92 µM [inhibitor, partial curve]"
15,NNC(=O)C1=NOC2COC3(CCN(c4ncccn4)CC3)OCC12 (configuration not stated),"inconclusive: 31.6 µM [inhibitor, partial curve, poor fit]"
16,COc1ccc(Nc2oc(-c3ccc(F)cc3)nc2C#N)cc1,"inconclusive: 11.2 µM [inhibitor, partial curve]"
17,O=C(NNC(=S)Nc1ccccc1)c1cc(-c2cccnc2)nc2ccccc12,"inconclusive: 35.5 µM [inhibitor, single point]"
18,Cn1ccnc1C(=O)c1ccc(NN)c([N+](=O)[O-])c1,"inconclusive: 22.4 µM [inhibitor, partial curve]"
19,COc1cc(/C=C2\SC(N3CCC(C)CC3)=NC2=O)ccc1O,"inconclusive: 39.5 µM [inhibitor, single point]"
20,O=C(Cn1cnc2ccccc2c1=O)N1CCN(c2ccc(F)cc2)CC1,"inconclusive: 39.8 µM [inhibitor, single point]"
21,Cc1ccc(S(=O)(=O)NNC(=O)c2sc(NS(=O)(=O)c3ccccc3)nc2C)cc1,"inconclusive: 25.1 µM [inhibitor, partial curve]"
